Experimental data as given in the supplement of paper PMC4967469.
pIC50: −log10 of the molar value. Lines with a small IC50 respond at low doses; fits outside the tested doses are given as limits. AUC, from the same fit, is the share of area under the viability curve across the 256-fold dose range; it is 1 without any effect and falls as sensitivity rises. Where the top dose is marked as inferred, it was calculated from the reported fits.

Compound: CCCCCCCCCCCC1=C(O)C(=O)C=C(O)C1=O [Embelin]
Assay: Viability of human cancer cell lines after 72 h of drug (GDSC screen)
Details: top dose 32 µM; top dose inferred
Procedure: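 Human cancer cell lines in 384-well plates, medium with 10% serum, drug for 72 h over a 256-fold dose range (nine 2-fold or five 4-fold steps up to the top dose). Adherent lines were fixed and stained with the nucleic acid dye Syto60, suspension lines read with resazurin; signal relative to control wells, capped at 0 and 100%. One two-parameter sigmoid per drug and line, fitted in a mixed model over all curves with the slope shared within a line.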

Row | Cell Line | AUC | pIC50
1 | KYM-1 (rhabdomyosarcoma, adherent) | 0.899 | 4.52
2 | KYSE-50 (oesophagus, adherent) | 0.72 | 5.10
3 | KYSE-70 (oesophagus, adherent) | 0.801 | 4.76
4 | KYSE-140 (oesophagus, adherent) | 0.671 | 5.19
5 | KYSE-150 (oesophagus, adherent) | 0.792 | 4.86
6 | KYSE-180 (oesophagus, adherent) | 0.72 | 5.09
7 | KYSE-220 (oesophagus, adherent) | 0.885 | < 4.49
8 | KYSE-270 (oesophagus, adherent) | 0.673 | 5.25
9 | KYSE-410 (oesophagus, adherent) | 0.685 | 5.16
10 | KYSE-450 (oesophagus, adherent) | 0.722 | 5.09
11 | KYSE-510 (oesophagus, adherent) | 0.7 | 5.19
12 | KYSE-520 (oesophagus, adherent) | 0.773 | 4.77
13 | L-363 (myeloma, suspension) | 0.844 | 4.74
14 | L-428 (Hodgkin lymphoma, suspension) | 0.654 | 5.30
15 | L-540 (Hodgkin lymphoma, suspension) | 0.672 | 5.24
16 | L-1236 (Hodgkin lymphoma, suspension) | 0.931 | < 4.49
17 | LAMA-84 (chronic myeloid leukaemia, suspension) | 0.827 | 4.70
18 | LAN-6 (neuroblastoma, adherent) | 0.936 | < 4.49
19 | LB373-MEL-D (melanoma, adherent) | 0.824 | 4.73
20 | LB647-SCLC (small cell lung carcinoma, semi-adherent) | 0.813 | 4.70
21 | LB771-HNC (head and neck, adherent) | 0.84 | 4.51
22 | LB831-BLC (bladder, adherent) | 0.733 | 5.03
23 | LB996-RCC (kidney, adherent) | 0.798 | 4.74
24 | LB1047-RCC (kidney, adherent) | 0.691 | 5.13
25 | LB2241-RCC (kidney, adherent) | 0.79 | 4.79

Row | Cell Line | AUC | pIC50
26 | LB2518-MEL (melanoma, adherent) | 0.771 | 4.89
27 | LC4-1 (lymphoblastic leukaemia, suspension) | 0.917 | < 4.49
28 | LC-1-sq (lung squamous cell carcinoma, adherent) | 0.84 | 4.56
29 | LC-2-ad (lung adenocarcinoma, adherent) | 0.702 | 5.12
30 | LCLC-97TM1 (large cell lung carcinoma, adherent) | 0.646 | 5.28
31 | LCLC-103H (large cell lung carcinoma, adherent) | 0.72 | 5.11
32 | LK-2 (lung squamous cell carcinoma, adherent) | 0.729 | 5.07
33 | LN-18 (glioma, adherent) | 0.743 | 5.08
34 | LN-229 (glioma, adherent) | 0.763 | 4.94
35 | LN-405 (glioma, adherent) | 0.827 | 4.57
36 | LNCaP-Clone-FGC (prostate, adherent) | 0.824 | 4.64
37 | LNZTA3WT4 (glioma, adherent) | 0.759 | 4.96
38 | LOU-NH91 (lung squamous cell carcinoma, adherent) | 0.814 | 4.71
39 | LOUCY (T-cell lymphoblastic leukaemia, suspension) | 0.606 | 5.43
40 | LOXIMVI (melanoma, semi-adherent) | 0.843 | 4.72
41 | LP-1 (myeloma, suspension) | 0.93 | < 4.49
42 | LS-123 (large intestine, adherent) | 0.74 | 4.90
43 | LS-180 (large intestine, adherent) | 0.732 | 4.99
44 | LS-411N (large intestine, adherent) | 0.703 | 5.07
45 | LS-513 (large intestine, adherent) | 0.906 | < 4.49
46 | LS-1034 (large intestine, adherent) | 0.894 | < 4.49
47 | LU-65 (large cell lung carcinoma, suspension) | 0.907 | < 4.49
48 | LU-99A (large cell lung carcinoma, adherent) | 0.808 | 4.79
49 | LU-134-A (small cell lung carcinoma, suspension) | 0.916 | < 4.49
50 | LU-135 (small cell lung carcinoma, suspension) | 0.601 | 5.44

Row | Cell Line | AUC | pIC50
51 | LU-139 (small cell lung carcinoma, suspension) | 0.849 | < 4.49
52 | LU-165 (small cell lung carcinoma, suspension) | 0.936 | < 4.49
53 | LXF-289 (lung adenocarcinoma, adherent) | 0.74 | 5.02
54 | LoVo (large intestine, adherent) | 0.632 | 5.33
55 | M14 (melanoma, adherent) | 0.792 | 4.81
56 | M059J (glioma, adherent) | 0.81 | 4.73
57 | MC116 (B-cell lymphoma, suspension) | 0.505 | 5.69
58 | MC-CAR (haematopoietic neoplasm, suspension) | 0.633 | 5.35
59 | MC-IXC (neuroblastoma, adherent) | 0.702 | 5.21
60 | MCF7 (breast, adherent) | 0.697 | 5.14
61 | MDA-MB-157 (breast, adherent) | 0.72 | 5.07
62 | MDA-MB-175-VII (breast, adherent) | 0.843 | 4.58
63 | MDA-MB-231 (breast, adherent) | 0.827 | 4.68
64 | MDA-MB-330 (breast, adherent) | 0.694 | 5.12
65 | MDA-MB-361 (breast, adherent) | 0.759 | 4.95
66 | MDA-MB-415 (breast, adherent) | 0.831 | 4.51
67 | MDA-MB-436 (breast, adherent) | 0.699 | 5.07
68 | MDA-MB-453 (breast, adherent) | 0.974 | < 4.49
69 | MDA-MB-468 (breast, adherent) | 0.841 | 4.68
70 | MDST8 (large intestine, adherent) | 0.918 | < 4.49
71 | ME-1 (acute myeloid leukaemia, suspension) | 0.84 | 4.61
72 | ME-180 (cervix, adherent) | 0.852 | 4.58
73 | MEG-01 (chronic myeloid leukaemia, suspension) | 0.875 | 4.55
74 | MEL-JUSO (melanoma, adherent) | 0.723 | 5.03
75 | MES-SA (uterus, adherent) | 0.844 | 4.74

Row | Cell Line | AUC | pIC50
76 | MFE-280 (endometrium, adherent) | 0.762 | 4.84
77 | MFE-296 (endometrium, adherent) | 0.817 | 4.71
78 | MFE-319 (endometrium, adherent) | 0.659 | 5.26
79 | MFH-ino (soft tissue, adherent) | 0.681 | 5.15
80 | MFM-223 (breast, adherent) | 0.925 | < 4.49
81 | MG-63 (osteosarcoma, adherent) | 0.72 | 5.03
82 | MHH-ES-1 (Ewing sarcoma, adherent) | 0.825 | 4.73
83 | MHH-NB-11 (neuroblastoma, adherent) | 0.895 | < 4.49
84 | MHH-PREB-1 (B-cell leukaemia, suspension) | 0.744 | 5.04
85 | MIA-PaCa-2 (pancreas, adherent) | 0.648 | 5.27
86 | MKN1 (stomach, adherent) | 0.796 | 4.80
87 | MKN28 (stomach, adherent) | 0.689 | 5.16
88 | MKN45 (stomach, adherent) | 0.683 | 5.12
89 | ML-1 (thyroid, adherent) | 0.612 | 5.37
90 | ML-2 (acute myeloid leukaemia, suspension) | 0.777 | 4.94
91 | MLMA (hairy cell leukaemia, semi-adherent) | 0.927 | < 4.49
92 | MMAC-SF (melanoma, adherent) | 0.853 | –
93 | MN-60 (B-cell leukaemia, suspension) | 0.739 | 5.00
94 | MOG-G-CCM (glioma, adherent) | 0.77 | 4.85
95 | MOG-G-UVW (glioma, adherent) | 0.759 | 4.96
96 | MOLM-13 (acute myeloid leukaemia, suspension) | 0.811 | 4.80
97 | MOLP-8 (myeloma, suspension) | 0.781 | 4.89
98 | MOLT-4 (lymphoblastic leukaemia, suspension) | 0.754 | 5.05
99 | MONO-MAC-6 (acute myeloid leukaemia, suspension) | 0.813 | 4.73
100 | MPP-89 (mesothelioma, adherent) | 0.841 | < 4.49
